The whole screen tested about 44,000 compounds, of which about 340 (0.77%) were called active. About 5% were inconclusive and are not listed. The call rests on the fitted dose curve; in most records, active means well fitted inhibition curve with a large enough effect; inconclusive means small, poorly fitted or top-dose-only effect; inactive means flat fitted curve, though single readings scatter. The list shows a part of the results.
Assay: Acumen qHTS Assay for Inhibitors of the mTORC1 Signaling Pathway in MEF (Tsc2-/-, p53-/-) Cells: Sytravon;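 further: plate controls were DMSO for no effect and rapamycin for full effect; nearly all actives have a fitted effect of over 50% in size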
Settings: phospho-rpS6 immunofluorescence/PI, 24 h; series mostly up to 38.3 µM; activity change, negative = inhibition: at the top concentration
Method in brief: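 Compounds act on Tsc2-/-, p53-/- fibroblasts carrying an empty vector for 24 h before fixation and dual staining for phospho-S6 and DNA (propidium iodide). Values are percentages of cells above a rapamycin-defined pS6/PI threshold.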

Activity change, negative = inhibition, inactive:
Cc1cccc(-n2c3nc(=O)[nH]c(=O)c-3cc3ccc(Cl)cc32)c1C 1.27%
CCOc1cccc2sc(N3CCN(C(=O)c4ccco4)CC3)nc12 1.44%
Cn1c(CN2CCOCC2)nc2cc(NC(=O)c3ccccc3[N+](=O)[O-])ccc21 -9.36%
COc1cc(OC)c(NC(=O)c2ccc(-n3cnc4cccnc43)cc2)cc1Cl -1.42%
CCOC(=O)CC(NC(=O)Cn1nnc(-c2ccc(Cl)cc2)n1)c1ccc(OC)cc1 (centres undefined) -15.7%
O=C(NCCCN1CCN(c2ccc(F)cc2)CC1)Nc1ccccc1Cl -8.99%
COc1cc(NC(=O)CN2CCCN(Cc3cccc(F)c3)S2(=O)=O)cc(OC)c1 1.7%
CCOC(=O)c1c(C)oc2nc(C)nc(NCCc3ccc(C)cc3)c12 2.98%
CCCc1cc(N2CCN(c3ccccc3F)CC2)n2cnnc2n1 -17%
Cc1ccc(CN2C(=O)c3ccccc3Sc3ccc(C(=O)N4CCOCC4)cc32)cc1 -0.322%
Cc1cccc(C(=O)Nc2ccc(N3CC=C(c4ccccc4C)CC3)c(C(=O)O)c2)c1 -4.81%
Cc1ccc(NC(=O)c2oc3ccc(S(=O)(=O)N(C)C4CCCCC4)cc3c2C)c(C)c1 -9.78%
COc1ccc(-c2nc(C)c(CCNC(=O)c3ccc(C(F)(F)F)cc3)s2)cc1OC -1.78%
CCOc1ccc(NC(=O)CSc2oc(-c3ccco3)nc2S(=O)(=O)c2ccccc2)cc1 10.3%
CCCNC(=O)c1cc2n(n1)CCCN(Cc1ccc(C)cc1)C2=O -27.9%
O=S(=O)(c1ccccc1)c1nc(-c2ccc(F)cc2)oc1NCc1ccccc1 -0.656%
O=C(COc1ccccc1F)Nc1ccc2nc(SCC(=O)N3CCOCC3)sc2c1 -1.58%
COc1ccc(CNC(=O)CCCc2nnc3n(C(C)C)c(=O)c4sccc4n23)cc1 -2.28%
Cc1ccc(S(=O)(=O)Nc2cc(Cl)c3oc4c(c3c2)CCCC4)cc1 17.8%
O=C(NCCc1ccccc1)c1ccc2c(c1)nc1n2CCOC1 -19.1%
CCOc1ccc(CNC(=O)CSc2c3c(nc4cc(Cl)ccc24)CCCC3)cc1 -12.1%
Cc1c(-c2nsc(NC(=O)c3cccs3)n2)nnn1-c1ccc(F)cc1 4.18%
CCOC(=O)c1cccc(NC(=O)CSc2ncc3c(n2)-c2ccc(Cl)cc2N(Cc2ccccc2)S3(=O)=O)c1 7.67%
COc1ccccc1CNC(=O)CCS(=O)(=O)c1ccc2c(c1)oc(=O)n2C -3.04%
CCOC(=O)c1oc2c(c1C)-c1nn(Cc3cccc(Cl)c3)cc1CC2 -1.13%
Cc1c(C)n(Cc2ccccc2)c2ccc(C(=O)N3CCN(c4ccccc4)CC3)cc12 0%
Cc1ccc(OCC(=O)NCC(=O)OCc2cc(=O)n3nc(C(C)C)sc3n2)cc1 -8.39%
CC(C)Oc1ccc(C(=O)N(Cc2ccc(N(C)C)cc2)Cc2ccco2)cc1 3.02%
CCN(C(=O)Cn1c(=O)oc2cc(S(=O)(=O)N3CCCCCC3)ccc21)c1cccc(C)c1 1.22%
O=C(CCS(=O)(=O)c1ccc(Br)s1)Nc1cc(C(F)(F)F)cc(C(F)(F)F)c1 -28.6%
Cc1cccc(OC(=O)c2snnc2C)c1 1.32%
Cc1cccc(C)c1Nc1c(-c2ccccn2)nc2ccc(Cl)cn12 5.75%
COc1ccc(-c2nc(CSCC(=O)N3CCN(c4ccccc4F)CC3)c(C)o2)cc1 -8.14%
O=C(NCc1ccccc1)NC1COc2ccccc2C1 (centres undefined) 0%
Cn1cc(S(=O)(=O)N2CCCCCC2)cc1C(=O)NCc1ccc(F)cc1 -9.44%
CCOc1ccccc1NC(=O)CSc1ncc2c(n1)-c1ccccc1N(CC)S2(=O)=O 5.64%
COc1ccc(CNCc2ccc(C(=O)O)s2)cc1 0.443%
Cc1cccc(NC(=O)C(=O)NCCCN2CCOCC2)c1 6.05%
CCOc1ccc(NC(=O)c2sc(-n3nc(C)c(CCC(C)C)c3C)nc2C)cc1 -8.76%
COc1ccc(NC(=O)c2nc(SCc3ccc(F)cc3)ncc2Cl)cc1 1.29%
CCOc1ccccc1CNC(=O)c1ccc2nc(N3CCC(C)CC3)sc2c1 0.0588%
Cc1ccccc1Nc1c(-c2ccc(N3CCOCC3)cc2)nc2cccc(C)n12 1.34%
CCC(C)Nc1nc2c(c(=O)[nH]c(=O)n2C)n1Cc1ccc(F)cc1 (centres undefined) -20.7%
Cc1ccc(-n2ncc3c(NCCc4ccc(S(N)(=O)=O)cc4)ncnc32)cc1 7.54%
CCCCOC(=O)CSc1ncnc2sc3c(c12)CCC(C)C3 (centres undefined) -0.119%
CC1=C(c2ccc(C)cc2)S(=O)(=O)NC1=NCc1ccccc1Cl -12.5%
COC(=O)c1cc2sccc2n1Cc1nc(-c2cccc(Cl)c2)oc1C -0.934%
C=Cc1ccc(Cn2c(C(=O)O)c(CNCCc3ccco3)c3ccc(C)cc32)cc1 -0.166%
Cc1ccc2oc(-c3cccc(NC(=O)c4cccc5c(Cl)cccc45)c3)nc2c1 -4.03%

Reference: PubChem BioAssay AID493208 (National Center for Advancing Translational Sciences (NCATS), 2011)
